Measurements as given in PubChem BioAssay (NCI).
Values joined by “and” are separate entries in the source; they are usually repeats but may differ in a detail not shown here. Equal values may be shown once.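 Compound exposure: 48 hours, 5 concentrations, 96-well plates. GI50 is the concentration that inhibits growth by half. TGI denotes the concentration required for complete inhibition of growth.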

test system: NCI-H322M lung; experiment: NCI tumour cell line growth inhibition, 48 h

Compound | GI50 [µM] | TGI
COC1=CC(=O)c2nc(-c3ccncc3)[nH]c2C1=O | > 100 | > 100 µM
COc1cc2c(cc1OC)C(c1ccccc1CCCCl)=NCC2 |  | > 100 µM
CCCCCN(CCCCC)CCCNc1c2c(nc3ccc(Cl)cc13)CCCC2 | 4.4 | 16.7 µM
Oc1ccc(-c2nc(-c3cccnc3)c(-c3ccc(F)cc3)[nH]2)cc1 |  | 58.4 µM
Cc1ccc(NC2=C(Cl)C(=O)N(Cc3ccccc3)C2=O)cc1O | 26.2 | 82.5 µM
N#CC(c1ccc(Cl)cc1)c1cccc(C(C#N)c2ccc(Cl)cc2)n1 (stereo not drawn) |  | > 100 µM
CC1=C(C(=O)NCc2ccccc2)C(/C=C/c2ccccc2)C(C(=O)NCc2ccccc2)=C(C)N1 |  | > 100 µM
CCN(CCO)CC1CCCC2CCCCC21 (stereo not drawn) |  | > 100 µM
CN(C)CC[N+]1=Nc2cccc3cccc(c23)N1 |  | > 100 µM
CCOC(=O)c1c2ccccc2n2c(N)c(C(N)=O)nnc12 |  | > 100 µM
COc1cc(/C=N/NC(=O)c2ccc(C(F)(F)F)nc2Nc2ccc(Cl)cc2C)ccc1O | 1.49 | 13.7 µM
COc1ccc2c(=O)c(O)c(-c3ccc(OC)c(OC)c3)oc2c1 |  | > 100 µM
CCC12C=CCN3CCC4(C(=C(C(=O)OC)[C@@H]1O)Nc1ccccc14)C32 (stereo partly drawn) |  | 6.88 µM
COc1cc2c(cc1OC)-c1c3cc(O)ccc3nn[n+]1CC2 |  | > 100 µM
NC(=O)c1sc(-n2cnc3ccccc32)cc1OCc1ccccc1Br | 10.7 | > 25 µM
COC1CCC2C(NS(=O)(=O)c3ccc(C)cc3)CCCC2O1 (stereo not drawn) (tested in a mixture with another compound) |  | > 34.5 µM
CNC(=O)C(C)C1CCC2(C)C=CC(=O)C(C)=C2C1O (stereo not drawn) |  | > 100 µM
CCCCCCCCCCCOc1ccc(C(=O)C(=O)c2ccc(OCCCCCCCCCCC)c(OCCCCCCCCCCC)c2)cc1OCCCCCCCCCCC |  | > 100 µM
CSc1nc2c(c(=O)[nH]1)N=C1c3ccccc3C(=O)C1C(c1ccccc1)N2 (stereo not drawn) | 13.5 | > 100 µM
Clc1cc(OC2C3CC4CC(C3)CC2C4)nc(Cl)n1 (stereo not drawn) |  | 34.5 µM
N.N.N.N.O=[N+]([O-])[O-].[Co+3].[N-]=[N+]=[N-].[N-]=[N+]=[N-] |  | > 100 µM
O=C1/C(=C/c2ccccc2)CN(C(=O)C(Cl)(Cl)Cl)C/C1=C\c1ccccc1 |  | 18.5 µM
CC1=C(C)[C@@]2(C)O[C@@]2(C)O[C@@]2(C)O[C@@]12C |  | > 100 µM
COc1ccc2c3c1C(=O)CCCC3CO2 (stereo not drawn) |  | > 100 µM
COc1cc(-c2nn(-c3ccc(NC(=O)c4ccc(Cl)c(C(F)(F)F)c4)cc3)cc2-c2ccncc2)ccc1Cl | 5.15 | > 100 µM
Cn1cnc([N+](=O)[O-])c1Sc1nnc(-c2cccnc2)n1C |  | > 100 µM

Compound | GI50 [µM] | TGI
COc1nc(N)c(C(=O)CCl)c(=O)n1C |  | 34.9 µM
COC1(OC)CCC2C1C1CCC(OC)(OC)C21 (stereo not drawn) |  | > 50 µM
Cc1ccccc1-n1c(=O)c2ncn(CCCl)c2n(-c2ccccc2C)c1=S |  | > 100 µM
Cc1cn(C2CC(n3cc(Cn4cc(I)c(=O)[nH]c4=O)nn3)C(CO)O2)c(=O)[nH]c1=O (stereo not drawn) |  | > 100 µM
COc1cc([C@@H]2c3cc4c(cc3[C@@H](Nc3ccc([N+](=O)[O-])cc3C(=O)c3ccccc3)[C@H]3COC(=O)[C@H]23)OCO4)cc(OC)c1OC |  | > 100 µM
NC(=O)C(c1ccccc1)N1OC2C(=O)N(c3ccccc3)C(=O)C2C1c1c2ccccc2c(Cl)c2ccccc12 (stereo not drawn) |  | > 100 µM
O=C(O)CN(CC(=O)O)C1CCCCC1N(CC(=O)O)CC(=O)NCCN=C=S (stereo not drawn) |  | > 100 µM
O=C1/C(=C/c2ccc(O)cc2)CC/C1=C\c1ccc(O)cc1 |  | > 100 µM
c1ccc2cc(-c3cc(-c4cc(-c5ccc6ccccc6c5)on4)no3)ccc2c1 |  | > 100 µM
NNC(=O)Nc1cccnc1 |  | > 100 µM
CC(C)C/C(CC(=O)CCC(=O)Nc1ccccc1[N+](=O)[O-])=N\NC(=O)c1cc2ccccc2cc1O |  | > 100 µM
COc1cc([C@@H]2OCC3C(c4ccc5c(c4)OCO5)OCC32)cc(OC)c1OC (stereo partly drawn) |  | > 100 µM
C=C1c2nc3ccccc3n2C=C(c2ccccc2)N1c1ccc([N+](=O)[O-])cc1 |  | > 86.9 µM
Cc1cc(I)cc(CN(C)CCCCN2CCCCC2)c1O | 23.9 | 95.9 µM
Oc1cc2c3c(c1)c1cc4c(cc1c[n+]3CC2)OCO4 |  | > 54.3 µM
CC12CCC(O)CC1CCC1C2CCC2(C)C(C3=CC(=O)OC3)CCC12O (stereo not drawn) |  | 15.6 µM
O=C1C(=O)N(c2ccc(Cl)cc2Cl)C(=O)C(=O)C1c1nc2ccccc2s1 |  | > 100 µM
Cc1nc2ccccc2c(N)c1-c1cc(C)c2c(C)nc3ccccc3c2n1 | 1.44 | 3.13 µM
Brc1ccc(N=c2nc3ccccn3n3nc(-c4ccccc4)cc23)cc1 |  | > 100 µM
CCN(CC)CCC(=O)Nc1ccc2c(c1)C(=O)c1ccc(NC(=O)CCN(CC)CC)cc1C2=O |  | 14.8 µM
Cc1cc(C)nc(NS(=O)(=O)c2ccc(NC(=O)c3ccc(Cl)c4c(Nc5ccc(S(=O)(=O)Nc6nc(C)cc(C)n6)cc5)c5ccccc5nc34)cc2)n1 |  | 10.8 µM
Cc1ccc(C(=O)/C(=C/c2ccc([N+](=O)[O-])cc2)SCc2ccc(Cl)cc2)cc1 | > 100 | > 100 µM
CCOc1cc2c(cc1O)/C(=N\OC)C[C@@H]1[C@@H]2CC[C@]2(C)[C@@H](O)CC[C@@H]12 |  | > 100 µM
COC(=O)[C@H](Cc1c[nH]c2ccccc12)NP(=O)(O)OCC1C=CC(n2cc(C)c(=O)[nH]c2=O)O1 (stereo partly drawn) |  | > 100 µM
OCc1ccc(N2CCC2c2ccc(F)cc2)cc1Cl (stereo not drawn) | 21.3 | > 70.8 µM
O=S(=O)(NC1=NCCN1C(=S)SN1CCn2c1nsc2=S)c1ccc(OC(F)(F)F)cc1 | 18.8 | 43.4 µM

Compound | GI50 [µM] | TGI
C=C1C(=O)C23CC1CCC2C12CO[C@@H]4OCC(C)(CC[C@@H]1OC3=O)C42 (stereo partly drawn) |  | 29.1 µM
COc1ccc(CNc2nc(NCc3ccc(OC)c(OC)c3)nc(NC3CCCCC3)n2)cc1 |  | > 100 µM
C[C@]12CC[C@H](O)CC1=CC[C@@H]1C2CC[C@]2(C)C(=O)N(N)C(=O)CC12 (stereo partly drawn) |  | > 100 µM
CC(=O)NNc1nc(C)c(C(=O)NNC(=O)C(=O)Nc2c(Cl)cc([N+](=O)[O-])cc2Cl)s1 |  | > 100 µM
O=C(Nc1ccc(C2=NCCN2)cc1)c1cncc(C(=O)Nc2ccc(C3=NCCN3)cc2)c1 |  | > 100 µM
O=C(Nc1ccccc1OC(F)(F)F)Nc1n[nH]c2ccccc12 | 81.6 | > 100 µM
O=C1C=C(Cl)C(=O)C(c2ccc(Cl)cc2)=C1 |  | > 100 µM
O=C(CC1(O)C(=O)Nc2c(Cl)cc(Cl)cc21)c1ccc(Br)cc1Br (stereo not drawn) |  | > 55.6 µM
CC[C@@]1(C[C@H]2C[C@@]3(C(=O)OC)c4[nH]c5ccccc5c4CCN3C2=O)COC2(CCCCC2)O1 |  | > 100 µM
O=C(/C=C/c1ccccc1)NC1C=Nc2ccc(Cl)cc2NC1=O (stereo not drawn) |  | > 100 µM
Clc1ccc(/C=C/c2nc3ccccc3s2)cc1Cl |  | > 100 µM
O=CN/C=C/c1cc(O)ccc1O |  | > 100 µM
O=[N+]([O-])C(=C1NCCN1)/C(Cl)=C(\Cl)Br |  | > 100 µM
C(/c1ccco1)=c1/nc(-c2ccccc2)n2c1nc1ccccc12 |  | > 100 µM
O=C(O)c1cccc2c1/C(=N/Nc1ccccc1)CC2 |  | > 100 µM
Cc1cccc(/C=N/NC(=S)Nc2ccccc2)n1 |  | > 91.8 µM
CCCN=C1CCN(Cc2ccccc2)c2ccccc2N1 |  | > 100 µM
C=C(Br)C(C)(Cl)CCC(Br)C(C)(C)Cl (stereo not drawn) |  | > 100 µM
C=C(CN1CCN(c2ccc(Cl)cc2F)CC1)c1ccc(C(=O)Nc2ccccc2N)cc1 | > 19.6 | > 100 µM
COc1ccccc1C12OC(=O)C1(C)Oc1ccccc1C2=O (stereo not drawn) |  | > 100 µM
CCOC(=O)C1=C(C)NC(=S)NC1c1ccccc1 (stereo not drawn) |  | > 100 µM
Nc1cccc2cc(Cl)cnc12 |  | > 100 µM
Cc1cccc2c(=O)cc(-c3ccccc3)[nH]c12 |  | > 100 µM
COc1ccc2c(c1)/C(=C/c1c(C)nc3sc(C)nn13)C(=O)N2 | > 24.9 | > 100 µM
O=C1/C(=C/c2cccc([N+](=O)[O-])c2)COc2ccc(O)cc21 | 10.3 | 21.9 µM
CCCCC(=O)OCC(=O)[C@]1(O)Cc2c(O)c3c(c(O)c2[C@@H](OC2CC(NC(=O)C(F)(F)F)C(O)C(C)O2)C1)C(=O)c1c(OC)cccc1C3=O (stereo partly drawn) |  | 29.8 µM

Compound | GI50 [µM] | TGI
Cc1ccc2c(=O)cc(-c3ccc(F)cc3)[nH]c2n1 |  | > 100 µM
CCOC(=O)Nn1c(C)nnc1-c1ccccc1 |  | > 100 µM
COc1cc(CNc2cnc3cc(N)cc(N)c3n2)cc(OC)c1 | 24.7 | > 100 µM
CCOC(=O)N1CCC2(CC1)C[C@](C)(C(C)=O)C(C)O2 (stereo partly drawn) |  | > 100 µM
CC(C)CCCCCCCCCCCCC(=O)NCC(=O)NC1C(C)OC(Nc2ncnc3c2ncn3C)C(O)C1O (stereo not drawn) |  | > 100 µM
O=c1[nH]cc(N=Cc2cc(Cl)cc(Cl)c2O)c(=O)[nH]1 |  | 64.4 µM
COc1ccc(-c2nc3sccn3c2/C(N)=N/C(=N)N)cc1OC | 51.7 | > 100 µM
CC(C)C1/C(=N/O)CC(c2ccccc2)N(N=O)C1c1ccccc1 (stereo not drawn) |  | > 100 µM
Cc1c2cnccc2c(C)c2c1c1ccccc1n2CCCN | 0.0608 | 0.88 µM and 0.47 µM
C#Cc1ccc(-n2c(/C=C/c3ccc(C(F)(F)F)cc3)nc3ncccc3c2=O)cc1 | 2.25 | 7.01 µM
O=C(NNC(=O)c1ccccc1SSc1ccccc1C(=O)NNC(=O)c1ccccc1S)c1ccccc1S |  | > 100 µM
O=C1c2ccccc2C2C1N2C(=O)C(F)(F)F (stereo not drawn) |  | > 100 µM
O=C(O)c1ccccc1[Se][Se]c1ccccc1C(=O)O |  | > 100 µM
O=C(O)CSc1ccc([N+](=O)[O-])cc1[N+](=O)[O-] |  | > 100 µM
O=C1C(=Cc2ccc(O)cc2)N=C(c2ccccc2)N1n1c(-c2ccccc2)nc2ccccc2c1=O |  | > 100 µM
[N-]=[N+]=Nc1cc(=O)oc2ccccc12 |  | > 100 µM
O=C1CCC23CC(C=CC=C12)n1c(=O)n(-c2ccccc2)c(=O)n13 (stereo not drawn) |  | > 100 µM
CC(C)/C(Cl)=N\OC(=O)Nc1ccc(S(N)(=O)=O)cc1 |  | 28.9 µM
CN1CCN([C@H]2C[C@H]3[C@@H]4CC=C5C[C@@H](O)CC[C@]5(C)[C@H]4CC[C@]3(C)C2=O)CC1 |  | > 100 µM
O=C1CC(c2ccc3c(c2)OCO3)Nc2ccccc21 (stereo not drawn) | 11.4 | 26.1 µM
COC(=O)c1cc2c(n1S(=O)(=O)c1ccc(C)cc1)C(=O)C(=O)c1[nH]cc(C(=O)OCc3ccccc3)c1-2 |  | 0.323 µM
O=C1C2C(C(=O)N1OS(=O)(=O)c1ccccc1)N(Cc1ccccc1)C(=O)N2Cc1ccccc1 (stereo not drawn) |  | > 100 µM
O=C(CCC(=O)c1ccc(Cl)cc1)NO |  | > 100 µM
CC1=CC2C(O1)C1C(=O)C=CC(=O)C1=CC2[N+](=O)[O-] (stereo not drawn) |  | > 87.9 µM
